B1: PhoQ; a variant is named by its letters at X, in order, P23837 (parent)
chain: MKKLLRLFFPLSLRVRFLLATAAVVLVLSLAYGMVALIGYSVSFDKTTFRLLRGESNLFYTLAKWENNKLHVELPENIDKQSPTMTLIYDENGQLLWAQRDVPWLMKMIQPDWLKSNGFHEIEADVNDTSLLLSGDHSIQQQLQEVREDDDDAEMTHSVAVNVYPATSRMPKLTIVVVDTIPVELKSSYMVWSWFIYVLSANLLLVIPLLWVAAWWSLRPIEALAKEVRELEEHNRELLNPATTRELTSLVRNLNRLLKSERERYDKYRTTLTDLTHSLKTPLXXLQXXLRSLRSEKMSVSDAEPVMLEQISRISQQIGYYLHRASMRGGTLLSRELHPVAPLLDNLTSALNKVYQRKGVNISLDISPEISFVGEQNDFVEVMGNVLDNACKYCLEFVEISARQTDEHLYIVVEDDGPGIPLSKREVIFDRGQRVDTLRPGQGVGLAVAREITEQYEGKIVAGESMLGGARMEVIFGRQHSAPKDE

This is one part of the list. Bounds are passed on as bounds.

Our source for the enrichment ratio values is a collection of fitness landscapes (doi:10.1126/science.1257360).

Variants of B1 are the subject of the assay. The assay can be described thus: enrichment ratio after two sorts for PhoP signalling (ratio (wild type AVST 3.29)); higher = more functional. The settings on record: with PhoP (E. coli).
On to AQFE, for which the enrichment ratio was at most 0.25.
Consider PVQY, for which the enrichment ratio is at most 0.25.
The same measure for FFHG: at most 0.25; for VYAI: at most 0.25.
The same measure for CFVW: at most 0.25; for TEYL: 13; for DWHT: at most 0.25.
For the variant AQID, the enrichment ratio stood at 6.46.
Consider IFCR, for which the enrichment ratio is at most 0.25.
The same measure for TQNN: 10.7; for GRCN: at most 0.25.
On to MESN, for which the enrichment ratio was 7.39.
The value for VTQT was at most 0.25.
The same measure for LCYC: at most 0.25.
For QFLV, the enrichment ratio was at most 0.25.
The value for LIIC was 1.65; that for KIND was at most 0.25.
Consider MQWE, for which the enrichment ratio was at most 0.25.
The same measure for IHDH: at most 0.25; for DGYV: at most 0.25; for FDNQ: at most 0.25.
On to QEVC, for which the enrichment ratio was at most 0.25.
In the case of LDHR, the enrichment ratio is at most 0.25.
The same measure for YYPC: at most 0.25.
The same measure for YTTV: at most 0.25.
The value for QMDN was 6.52; that for MGYH was at most 0.25; that for VALN was 6.33.
On to GHGA, for which the enrichment ratio is at most 0.25.
With YVCH, the enrichment ratio came out at 0.383.
Regarding LGED, the enrichment ratio is at most 0.25.
The value for DCPL was at most 0.25.
Turning to QKNR, the enrichment ratio was at most 0.25.
The same measure for HDGN: at most 0.25; for RLCL: at most 0.25.
The value for FMVF was at most 0.25.
For the variant RANW, the enrichment ratio was at most 0.25.
The same measure for WEMW: at most 0.25; for PMVR: at most 0.25.
The same measure for PNQC: at most 0.25.
The same measure for NIAM: at most 0.25; for DFCL: at most 0.25; for ADKM: at most 0.25.
In the case of QMIM, the enrichment ratio was at most 0.25.
The same measure for FWCL: at most 0.25.
With WESW, the enrichment ratio is at most 0.25.
The same measure for RLPQ: at most 0.25.
The same measure for TFYL: at most 0.25.
The value for GCFG was at most 0.25; that for WWLS was at most 0.25; that for MGAK was at most 0.25.
For TLKC, the enrichment ratio is at most 0.25.
Take QTFD: the enrichment ratio is at most 0.25.
Regarding ACIS, the enrichment ratio is 2.09.
The same measure for SAYE: at most 0.25; for FAPS: at most 0.25.
The same measure for HYKS: at most 0.25.
The value for LHAV was at most 0.25.
On to SNPN, for which the enrichment ratio was at most 0.25.
The value for GCYK was at most 0.25; that for RKRR was at most 0.25; that for EGVP was at most 0.25.
With SDPY, the enrichment ratio is at most 0.25.
The value for AHAI was at most 0.25.
Consider AFQF, for which the enrichment ratio is at most 0.25.
The value for IWKK was at most 0.25; that for FQPP was at most 0.25.
The same measure for FQWG: at most 0.25; for FVQG: at most 0.25; for TGKC: at most 0.25.
The same measure for YFLI: at most 0.25; for GYMF: at most 0.25; for LCQY: at most 0.25.
For the variant KQHI, the enrichment ratio is at most 0.25.
For FTER, the enrichment ratio was at most 0.25.
The value for HEPI was at most 0.25; that for VTDW was at most 0.25.
The value for YQFH was at most 0.25; that for KDRR was at most 0.25; that for PNRQ was at most 0.25.
The same measure for ELLE: at most 0.25.
In the case of FCYY, the enrichment ratio is at most 0.25.
The same measure for VYYP: at most 0.25; for NEHK: at most 0.25.
The value for MKQQ was at most 0.25; that for EWCS was at most 0.25; that for NMMS was at most 0.25.
The same measure for EYGI: at most 0.25; for NVLT: at most 0.25; for ACCY: 19.6.
Take GTMR: the enrichment ratio is at most 0.25.
The value for VEFM was at most 0.25; that for KRII was at most 0.25.
For the variant HSPW, the enrichment ratio was at most 0.25.
The same measure for HEGG: at most 0.25; for MAIE: at most 0.25.
As to FDLV, the enrichment ratio is at most 0.25.
For GNQS, the enrichment ratio is at most 0.25.
The value for FQRF was at most 0.25; that for LKCQ was at most 0.25.
The same measure for YNKV: at most 0.25; for ESFS: at most 0.25; for MQRS: at most 0.25.
For the variant SIVC, the enrichment ratio worked out at 2.74.
On to MNSL, for which the enrichment ratio came to 4.59.
The value for GGCA was 6.15.
The value for IYYR was at most 0.25; that for PKNN was at most 0.25.
On to MLEC, for which the enrichment ratio is at most 0.25.
The same measure for IWPL: at most 0.25.
The same measure for VVHI: at most 0.25; for MAYT: 1.93.
The value for VQQR was at most 0.25; that for VIIT was at most 0.25.
On to IEMF, for which the enrichment ratio was at most 0.25.
The same measure for VYHC: at most 0.25; for RTVR: at most 0.25; for LMQK: at most 0.25.
The same measure for PWPT: at most 0.25; for NKIP: at most 0.25.
With EESY, the enrichment ratio is at most 0.25.
Take KPRV: the enrichment ratio is at most 0.25.
Take DVWP: the enrichment ratio is at most 0.25.
The same measure for YYLM: at most 0.25; for QNRA: at most 0.25; for CFIY: at most 0.25.
The same measure for RILI: at most 0.25; for NVTK: at most 0.25; for WVGM: at most 0.25.
The value for KESL was at most 0.25; that for ILRK was at most 0.25.
Consider KGMH, for which the enrichment ratio was at most 0.25.
The value for TFIM was at most 0.25; that for DRWW was at most 0.25; that for CCPF was at most 0.25.
The same measure for IIYR: at most 0.25; for TRRQ: at most 0.25.
The value for NNPC was at most 0.25; that for MYAE was at most 0.25.
Turning to VRSK, the enrichment ratio was at most 0.25.
The same measure for KLHM: at most 0.25; for MMCF: at most 0.25; for FYRV: at most 0.25.
The value for EAFE was at most 0.25.
On to TGGC, for which the enrichment ratio was found to be 11.2.
For the variant LGPR, the enrichment ratio is at most 0.25.
The value for RPHF was at most 0.25; that for TSQF was 7.76; that for ADMG was at most 0.25.
The same measure for GFDM: 0.951; for RATL: at most 0.25.
The value for VYYE was at most 0.25; that for AYDR was at most 0.25.
